First the molecules themselves.
B1: CPEB3 Ribozyme (parent)
chain: UAACAGGGGGCCACAGCAGAAGCGUUCACGUCGCAGCCCCUGUCAGAUUCUGGUGAAUCUGCGAAUUCUGCUGUAUAUCUC

The source gives no read counts; variants with many changes may rest on few reads.

In this data set the parent is B1. The experiment in a line: self-cleavage, relative activity (ratio to wild type); higher = more cleavage; in vitro, sequencing. An outline of the steps: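 Libraries of CPEB3 self-cleaving ribozyme mutants came from rounds of error-prone PCR and carried barcodes, which DNA sequencing matched to variants. In vitro transcription used T7 RNA polymerase at 37°C for 5 hours, with a further 15 min in DNase I before EDTA stopped the reaction; the ribozymes cleaved during both steps. The RNA was reverse transcribed with template switching and sequenced on Illumina. Relative activity is the cleaved/total read fraction of a variant divided by that of the unmutated ribozyme, averaged over three batches with at least 5 reads.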
Take AAACAGGGGGCUACAGCAGAAGCGUACACGUCGCAGCCCCUGUCAGAUUCUGGUGUAUCUGCGAAUCCUGCUGUAUAUCCC [U1A C12U U26A A56U U67C U80C]: the self-cleavage is 0.24. Turning to AAACAGGGGGCCACGGCAGAAGCGUUCACGUCGCAGCCCCCGUCAGAUUCUGGUGAAUCAGCGAAUUCUGCUACAUAUCUC [U1A A15G U41C U60A G73A U74C], the self-cleavage was found to be 0.32. As for AAACAGGGGGCCACAGCUGAAGCGUCCACGUCGCACCCCCUGUCAGAUUCUGGUGAAUCUGCGAAUUCCGCUGUAUAUCUC [U1A A18U U26C G36C U69C], the self-cleavage worked out at 0.06. With AAACAGGGGGCCACAGCAGAAGCGUUCGCGUCGCAGCCCCUAUCAGAUUCUGGUGAAUCUGCGAAUUCUGCUGUAUAUCUC [U1A A28G G42A], the self-cleavage turned out to be 0.14. Take AAACAGGGGGCCACAGCAGAAGCGUUCACGUCGCAGCCCCUGUCAGGUUCUAGUGAAUCUGCGAAUUCUGCUGUAUAUCUC [U1A A47G G52A]: the self-cleavage was found to be 0.94. Consider AAACAGGGGGCCACAGCAGAAGCGUUCACGUCGCAGCCCCUGUCAGAUUCUGGUGAUUCUGCGGAUUCUGCUGUAUAUCUC [U1A A57U A64G], for which the self-cleavage was found to be 0.44. As for AAACAGGGGGCCACAGCAGUAGCGUUCACGUCGCAGCCCCUGUCAGAUUCUGGUGAAUCUGCGAAUUCUGCGGUAUAUCUC [U1A A20U U72G], the figure is 0.18; as for AAACAGGGGGCCACAGCAGAUGCGUUCACGUCGCAGCCCCCGUCAGAUUCCGGUGAAUCUGCGAAUUCUGCUGUAUACCUC [U1A A21U U41C U51C U78C], 0.11. Consider AAACAGGGGGCCACAGCAGAAGCGUUCUCGUCGCAGCCCCUGUCAGAUUCUGGUGAAUCCGCGAGUCCUGCUGUAUAGCUC [U1A A28U U60C A65G U67C U78G], for which the self-cleavage stood at 0.08.

For the variant AAACAGGGGGCCACAGCAGAAGCGUUCACGUUGCAGCCCCUGUCAGAUUCUCUUGAAUCAGCGAAUUCUGCUGUAUAUCUC [U1A C32U G52C G53U U60A], the self-cleavage was determined as 0.09.

Take AAACAGGGGGCCAAAGCAGAAGCGAUCAGGUCGCAGCCCCUGUCAGAUUCUGGUGAAUCUGCAAAUUCUGCUGUAUAUCUC [U1A C14A U25A C29G G63A]: the self-cleavage was 0.17. In the case of AAACAGGGGGCCACAGCAGAAGCGUUCACGUCGCCGCCCUUGUCAGAUUCUGGUGAAUCUGCGAAUUCUGCUGUAUAUCUC [U1A A35C C40U], the self-cleavage was 0.23.

For the variant AAACAGGGGGCCACAGCAGGAGCGUUCUCGUCGCAGCCCCUGUCAGAUUCUGGUGAAUCUGCGAAUCCUGCUGUAUAUCUC [U1A A20G A28U U67C], the self-cleavage was determined as 0.29. Under AAACAGGGGGCCACAGCAGAAGCGUUCACGUCGCAGCCCCUGUCAGAUUCUGGUGAAUCUGCGAAUUCUGCUGUUUUUCUC [U1A A75U A77U] stands 1.16; under AAACAGGGGGCCACUGCAGAAGCGUUCACGUCGCAGCCCCUGUCAGAUUCUGGUGAGUCUGCGAAUUCUGCUGUAUAUCUC [U1A A15U A57G], 0.51.

As for AAACAGGGGGCCACAGCAGAAGCGUUCAUGUCGCAGCCCCUGUCAGAUCCUGGUGAGUCUGCGAACUCUGCUGUAUAUCUC [U1A C29U U49C A57G U66C], the self-cleavage came out at 0.16.

Turning to AAACAGGGGGCCACAGCGGAAGCGUUCACGUCGCAGCCCCUGUCAGAUUCUGGUGAAUCUGCGAGUUCUGCUGUAUAUCUC [U1A A18G A65G], the self-cleavage worked out at 0.34. For the variant AAACAGGGGGCCACAGCUGAAGCGUUCACGUCGCAGCCCCUGUCAGAUUCUGGUGAAUCCGCGAAUUCUGCUGUUUAUCCC [U1A A18U U60C A75U U80C], the self-cleavage amounted to 0.2. In the case of AAACAGGGGGGCUCAGCAGAAGCGUUCUCGUCGCAGCCCCUGUCAGAUUCUGGUGAAUCUGCGAAUUCUGCCGUAUAUCUC [U1A C11G A13U A28U U72C], the self-cleavage was 0.76. As for AAACAGGGGGCCACAGCUGAAGCGUUCACGACGCAGCCCCUGUCAGAGUCUGGUGAAUCUGCGUAUUCUGCUGUAUAUCUA [U1A A18U U31A U48G A64U C81A], the figure is 0.05. Consider AAACAGGGGGCCACAGCAGCAGCGUUCACGUCGUAGCCCCUGUCAGAUUCUGGUGAAUCUCCGAAUUCUGCUGUAUAUCGC [U1A A20C C34U G61C U80G], for which the self-cleavage worked out at 0.04. As to AAACAGGGGGCCACGGCAGAAGCGUUCACGUCGCAGCCCCUGUCAGAUUCAGGUGAAUCUGCGAAUUCUGCUGUAUAUCUC [U1A A15G U51A], the self-cleavage was determined as 0.97. For the variant AAACAGGGGGCCACAGCAGAAGCGUUCUCGUCGCGGCCCCUGUCAGAUUCUGGUGAAUCUGCGAGUCCUGCUGUAUAGCUC [U1A A28U A35G A65G U67C U78G], the self-cleavage was determined as 0.44. For AAACAGGGGGCCACAGCGGAAGCGUUCACGUCGCAGCUCCUGUCAGAUUCAGGUGAAUCUGCGAAUUCUGCUGUAUAUCUC [U1A A18G C38U U51A], the self-cleavage came out at 0.39. Consider AAACAGGGGGCCACAGCAGAAGCGUUCGCGUCGCAGCCCCCGUCAGAUUCUGGUGAACCUGCGAAUUCUGCUGUAUUUCUC [U1A A28G U41C U58C A77U], for which the self-cleavage is 0.14.

AAACAGGGGGCCACAGCAGGAGCGUUCGCGUGGCAGCCCCUGUCAGAUUCUGGUGAAUCUGCGAAUUCUGCCGUAUAUCUC [U1A A20G A28G C32G U72C]: the self-cleavage was found to be 0.08.

As to AAACAGGGGGCCACGGCAGAAGCGUUCAAGUCGCAGCCCCUGUCAGAUUCUGGUGAAUCUGCGAAUUCUGCUGUAUAUCUC [U1A A15G C29A], the self-cleavage was 0.62. On to AAACAGGGGGCCACAGCGGAAGCGUUCACGUCGCAGCCCCUGACAGAUUCUGGUGAAUCUGCGAAUUCUGCUGUAUAUCUC [U1A A18G U43A], for which the self-cleavage came to 0.98. As to AAACAGGGGGCCACAGCAGAAGCGUUCGCGUCGCAGCCCCUGUCAGAUACCGGUGAAUCUGCGAAUUCUUCUGUAUAUCUC [U1A A28G U49A U51C G70U], the self-cleavage was determined as 0.14. Turning to AAACAGGGGGCCACAGCAGAAGCGUUCGCGUCGCAGCCCCUGUCAGAUUCUGGUGAGUCUGCGAAUUCUGCUGUAUAUCUC [U1A A28G A57G], the self-cleavage was found to be 0.34. As for AAACAGGGGGCCACAGCAGGAGCGUUCACGUCGCAGCCCCUGUCAGAUUCUGGUGAACCUGCGAAAUCUGCUGUAAAUCUC [U1A A20G U58C U66A U76A], the figure is 0.05; as for AAACAGGGGGCCACAGCAGAAGCGUUCACGUCGCAGCCCCUGUCAGAUUCUGGUGAAUCUGCGGGUUCUGCUGUAUAUCUC [U1A A64G A65G], 0.17; as for AAACAGGGGGCCACAGCAGAAGCGUUCACGUCGCGGCCCUUGUCAGAUUCUGGUGAAUCUGCGAAUUCUGCUGUAUAUCUC [U1A A35G C40U], 1.24. For AAACAGGGGGCUACAGCAGAAGCGUUCACGUCGCAGCCCCCGUCAGAUUCUGGUGAUUCUGCGGAUACUGCUGUAUAUCUC [U1A C12U U41C A57U A64G U67A], the self-cleavage worked out at 0.31.

The values are drawn from the RNAGym collection of RNA variant scans (doi:10.1093/nar/gkz1192).
